# Test results as given in PubChem BioAssay (NCATS).
# Values joined by “and” are separate entries in the source; they are usually repeats but may differ in a detail not shown here. Identical values can stand only once. The inconclusive results got no clear call from the source; some entries with a clear call stand among them for comparison. Where the call is inconclusive, the potency comes from a doubtful curve fit. Active and inactive are the calls of the source. Calls follow the shape of the dose curve; as a rule, active = well fitted cell-killing curve with a large enough effect; inconclusive = small, poorly fitted or top-dose-only effect, or effect the other way; inactive = no such curve, though single readings can be large or run the other way.
# What was measured:
# [1] = Viability qHTS for spleen associated tyrosine kinase inhibitor (SYKi) naive MV4-11 cells (AID 1963823); settings: MV4-11 AML viability, CellTiter-Glo luminescence, 72 h; viability (% of control): at 45 µM (top of the series); also: nearly all actives have a fitted effect of over 40% in size
# Summary of the method: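 Cells: MV4-11, SYK inhibitor naive, 500 per well. Treatment: library compounds, 72 hr, 37 C, 5% CO2. Read-out: CellTiter-Glo luminescence after 10 min RT.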
# [2] = Viability qHTS for spleen associated tyrosine kinase inhibitor (SYKi) drug resistant MV4-11 cells (AID 1963824); also: nearly all actives have a fitted effect of over 35% in size
# Summary of the method: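 SYK-inhibitor-resistant MV4-11 AML cells were seeded at 500 per well onto compound and cultured 72 hours (37 °C, 5% CO2). CellTiter-Glo was then added, and after 10 min at room temperature, luminescence gave viability.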
# Potency is read from the fitted curve at half-maximal effect; tags tell the direction and shape of the fitted curve.
Structure (SMILES),Potency [1],Potency [2],viability (% of control) [1],"viability, % of control [2]"
N#CC1C(=O)Nc2scc(-c3ccc(-c4ccccc4O)cc3)c2C1=O (stereo not drawn),inactive,inactive,,
CNC(=O)Oc1ccc2c(c1)[C@]1(C)CCN(C)[C@@H]1N2C,"inconclusive: 4.73 µM [cytotoxic, single point] and inconclusive: 29.1 µM [cytotoxic, single point]","inconclusive: 29.1 µM [cytotoxic, single point]",,
CN(C)CCC[C@]1(c2ccc(F)cc2)OCc2cc(C#N)ccc21,"inconclusive: 7.31 µM [cytotoxic, partial curve, poor fit]","inconclusive: 20.6 µM [cytotoxic, partial curve, poor fit]",,
C=C1C(=O)O[C@@H]2C[C@]3(C)[C@@H](CCC(C)O)[C@@H]3C[C@H]12 (stereo partly drawn),"inconclusive: 1.3 µM [cytotoxic, partial curve, poor fit]","inconclusive: 10.3 µM [cytotoxic, partial curve, poor fit]",,
C=C(CCO[C@@H]1O[C@H](CO)[C@@H](O)[C@H](O)[C@H]1O)C(=O)O,inactive,inactive,,
CN(C)C(=O)NC1CCC(CCN2CCN(c3cccc(Cl)c3Cl)CC2)CC1 (stereo not drawn),"inconclusive: 2.66 µM [cytotoxic, single point]","inconclusive: 4.22 µM [cytotoxic, single point]",,
C[C@H]1NCc2cc(-c3ccc4c(=O)c(C(=O)O)cn(C5CC5)c4c3OC(F)F)ccc21,inactive,inactive,,
CC(C)n1nc(Cc2cccc3ccccc23)c2c(N)ncnc21,"inconclusive: 9.2 µM [cytotoxic, partial curve]",active: 8.2 µM,,
CC(C)n1cnc2c(NCc3ccccc3)nc(NCCCO)nc21,"inconclusive: 29.1 µM [cytotoxic, single point]","inconclusive: 18.4 µM [cytotoxic, single point]",,
CC1(C)SCCN(S(=O)(=O)c2ccc(Oc3ccncc3)cc2)[C@H]1C(=O)NO,"inconclusive: 11.6 µM [cytotoxic, partial curve]","inconclusive: 20.6 µM [cytotoxic, partial curve]",,
CC(=O)O[C@H]1C[C@@]2(C)[C@@H](C[C@@H](O)[C@H]3[C@@]4(C)CC[C@@H](O)[C@@H](C)[C@@H]4CC[C@@]32C)/C1=C(\CCC=C(C)C)C(=O)O,inactive,inactive,,
CC(CCC1(O)OC2CC3C4CCC5CC(O[C@@H]6O[C@H](CO)[C@@H](O)[C@H](O)[C@H]6O[C@@H]6OC[C@@H](O)[C@H](O)[C@H]6O)C(O)CC5(C)C4CCC3(C)C2C1C)CO[C@@H]1O[C@H](CO)[C@@H](O)[C@H](O)[C@H]1O (stereo partly drawn),,,inactive: 83.1% [at 9.25 µM],inactive: 86.8% [at 9.25 µM]
C/C=C/C[C@@H](C)C(=O)[C@H]1C(=O)N[C@@H](C(C)C)C(=O)N(C)CC(=O)N(C)[C@@H](CC(C)C)C(=O)N[C@@H](C(C)C)C(=O)N(C)[C@@H](CC(C)C)C(=O)N[C@@H](C)C(=O)N[C@H](C)C(=O)N(C)[C@@H](CC(C)C)C(=O)N(C)[C@@H](CC(C)C)C(=O)N(C)[C@@H](C(C)C)C(=O)N1C,active: 6.45 µM,active: 4.07 µM,,
C=C1CCC2[C@@](C)(C=O)CCC[C@]2(C)[C@H]1CC/C(C)=C/CO (stereo partly drawn),"inconclusive: 29.1 µM [cytotoxic, single point]","inconclusive: 29.1 µM [cytotoxic, single point]",,
Cc1c(C(N)=O)cc([N+](=O)[O-])cc1[N+](=O)[O-],"inconclusive: 33.5 µM [cytotoxic, single point]",inactive,,
CCN(CC)CCOC(=O)C(c1ccccc1)C1CCCCC1 (stereo not drawn),inactive,inactive,,
CC1C2=CC(=O)OC2(O)CC2C1C(O)CC1C(C)(CO)CCCC21C (stereo not drawn),inactive,"inconclusive: 6.4 µM [cytotoxic, partial curve]",,
C=C1CC2C(C)(CCC(=O)O)C(C(C)(C)O)CCC2(C)C2(C(=O)OC)C(=O)C(C)(O)C(=O)C12C (stereo not drawn),"inconclusive: 10 µM [cytotoxic, single point]","inconclusive: 14.2 µM [cytotoxic, single point]",,
Cc1c[nH]c2nc(Nc3ccc(N4CCN(C)CC4)c(F)c3)nc(-c3cccc(CC#N)c3)c12,"inconclusive: 0.0066 µM [cytotoxic, full curve]",active: 0.0059 µM,,
C=C(COC(=O)CC(C)C)C1Cc2cc(C(C)=O)ccc2O1 (stereo not drawn),inactive,"inconclusive: 5.17 µM [cytotoxic, partial curve, poor fit]",,
COC(=O)C1=CO[C@@H](O[C@@H]2O[C@H](CO)[C@@H](O)[C@H](O)[C@H]2O)[C@@H]2[C@@H](C(=O)O)CC[C@H]12,inactive,inactive,,
NC1Nc2ccccc2C1(N)CC1NC(=O)C(Cc2ccccc2)NC(=O)C(Cc2ccccc2)NC1=O (stereo not drawn),inactive,"inconclusive: 15.9 µM [rising, partial curve, poor fit]",,

Structure (SMILES),Potency [1],Potency [2],viability (% of control) [1],"viability, % of control [2]"
CCNC(=O)OC1CCN(c2nncc3cc(OC)c(OC)cc23)CC1,"inconclusive: 18.4 µM [cytotoxic, partial curve]","inconclusive: 20.6 µM [cytotoxic, single point]",,
CCOC(=O)N1CCN(C(=O)Cn2sc3nc(C)cc(C)c3c2=O)CC1,"inconclusive: 25.9 µM [cytotoxic, single point]","inconclusive: 6.51 µM [cytotoxic, single point]",,
O=C(CCCc1ccc2cccnc2n1)NCc1cc(-c2ccc(F)c(C(F)(F)F)c2)no1,"inconclusive: 16.6 µM [cytotoxic, partial curve, poor fit]","inconclusive: 18.6 µM [cytotoxic, partial curve]",,
Cc1ncc(CO)c(CO)c1O,active: 3.76 µM,"inconclusive: 5.31 µM [cytotoxic, partial curve, poor fit]",,
CC(C)CC1NC(=O)C2CC3(O)c4ccccc4NC3N2C1=O (stereo not drawn),inactive,inactive,,
C=C1CC[C@@H]2[C@](C)(CO[C@@H]3O[C@H](CO)[C@@H](O)[C@H](O)[C@H]3O)[C@H](O)CC[C@@]2(C)[C@@H]1C/C=C1/C(=O)OC[C@H]1O,inactive,"inconclusive: 0.282 µM [cytotoxic, partial curve, poor fit]",,
CC12CCC(=O)C=C1C(O)CC1C2C(O)CC2(C)C1CC[C@]2(O)C(=O)CO (stereo partly drawn),"inconclusive: 6.93 µM [rising, partial curve, poor fit]",,,inactive: 90% [at 9.25 µM]
O=C1C[C@@]2(C(=O)N1)C(=O)N(Cc1ccc(Br)cc1F)C(=O)c1cccn12,"inconclusive: 0.092 µM [cytotoxic, full curve, poor fit]","inconclusive: 5.17 µM [cytotoxic, partial curve, poor fit]",,
CNCC(O)c1ccc(O)c(O)c1 (stereo not drawn),inactive,inactive,,
CC1(C)CCC2(C(=O)OC3OC(CO)C(O)C(O)C3O)CCC3(C)C(=CCC4C5(C)CCC(O)C(C)(C(=O)O)C5CCC43C)C2C1O (stereo not drawn),"inconclusive: 1.53 µM [cytotoxic, single point]","inconclusive: 1.22 µM [cytotoxic, partial curve, poor fit]",,
COc1cc(/C=C/C(=O)O[C@H]2C[C@@H]3C(C(=O)O)=CO[C@@H](O[C@@H]4O[C@H](CO)[C@@H](O)[C@H](O)[C@H]4O)[C@@H]3[C@H]2C)ccc1O,inactive,inactive,,
C[C@H]1CC(=O)C2=C(C1)C(O)C(O)[C@@]1(O)[C@H]2C(=O)c2cccc(O)c2[C@@H]1O (stereo partly drawn),inactive,"inconclusive: 12.8 µM [cytotoxic, partial curve, poor fit]",,
COc1cc(C)c(C(=O)OC2C(C)OC(OC3CCC(C)C4C3C=C(C)C3/C(C)=C\CC/C(C)=C/C5(C)C=C(C(=O)O)C(C)CC56OC(=O)/C(=C(\O)C34C)C6=O)C(O)C2O)c(OC)c1 (stereo not drawn),"inconclusive: 4.37 µM [cytotoxic, partial curve, poor fit]","inconclusive: 4.91 µM [cytotoxic, partial curve]",,
CN1C(=O)CC(C)(c2ccccc2)C1=O (stereo not drawn),inactive,inactive,,
C=C1[C@H]2CC[C@]3(O)[C@@](CC[C@@H]4[C@](C)(C(=O)O)CCC[C@]43C)(C2)[C@H]1OC(=O)/C(C)=C\C,inactive,inactive,,
CC1(C(=O)O)CCCC2(C)C3CCC4CC3(CCC12)CC4C(=O)O (stereo not drawn),inactive,inactive,,
O=C(Nc1ccc(CN2CCOCC2)cc1)c1ccc(-c2cccc(Cl)c2)o1,active: 8.2 µM,active: 9.2 µM,,
C=CCC/C=C/C#CCCCCCCCC[C@H]1C(=O)O[C@H](C)[C@@H]1O,"inconclusive: 20.2 µM [cytotoxic, single point]","inconclusive: 16.1 µM [cytotoxic, partial curve]",,
CCCCCOc1ccc(C2SC(=O)NC2=O)cc1OCC (stereo not drawn),"inconclusive: 16.4 µM [cytotoxic, partial curve]","inconclusive: 18.8 µM [cytotoxic, single point]",,
N#Cc1ccnc(N2C(=O)CC[C@H]2C(=O)N(c2cncc(F)c2)C(C(=O)NC2CC(F)(F)C2)c2ccccc2Cl)c1 (stereo partly drawn),"inconclusive: 2.63 µM [cytotoxic, partial curve, poor fit]",inactive,,
CCCCCCCCCCCCCCCCOCCCOP(=O)(O)COC(CO)Cn1ccc(N)nc1=O (stereo not drawn),active: 2.59 µM,active: 3.26 µM,,
CCCO[C@@H]1O[C@H](CO)[C@@H](O)[C@H](O)[C@H]1O[C@@H]1OC[C@@H](O)[C@H](O)[C@H]1O,"inconclusive: 3.21 µM [cytotoxic, partial curve, poor fit]","inconclusive: 2.86 µM [cytotoxic, full curve, poor fit]",,
